The results in this text go back to ChEMBL document CHEMBL4888484, “Replenishing the malaria drug discovery pipeline: Screening and hit evaluation of the MMV Hit Generation Library 1 (HGL1) against asexual blood stage Plasmodium falciparum ,using a nano luciferase reporter read-out” (2022).

One may read the % Inhibition as the drop in the measured response relative to a control, in per cent.

Out of some 150,000 compounds screened, about 540 (0.36%) showed an effect of 50% or more. This is one part of the list.

The test concerns Plasmodium falciparum. In words: Primary screen in NF54 nanoGlo assay, in single point, at 2uM, 72h; a lower Z score goes with more inhibition. It is filed as functional, Erythrocyte. Conditions: timepoint 72 hour.
On to `O=C(Nc1ccnn1C1CCN(Cc2ccc(-n3cccn3)cc2)CC1)c1cccnc1`, for which the “% Inhibition” value was 4% and the Z score is listed as -0.48.

In the case of `CC(=O)c1ccc(N(Cc2c(C)noc2C)S(C)(=O)=O)cc1`, the “% Inhibition” value is -1% and the Z score stood at 0.14.

For the molecule `Cc1ccc(O)c(CNc2ccc(C(=O)N3CCCC[C@@H]3C)cc2)n1`, the “% Inhibition” value was -13% and the Z score was found to be 2.26.

In the case of `CCCCN(CCC(=O)Nc1nnc(-c2ccc(C(F)(F)F)cc2)s1)C(=O)C1CCC1`, the “% Inhibition” value was -13% and the Z score was 1.33.

As to `CCCCc1c(C)[nH]c2nc(N(Cc3ccc(F)cc3)C(=O)c3ccccc3F)nn2c1=O`, the “% Inhibition” value is listed as -14% and the Z score is on record as 1.43.

For the molecule `Cc1c(CN(C)C(=O)c2ncn(C(C)(C)C)n2)cnn1C`, the “% Inhibition” value was -7% and the Z score was 0.89.

`CC1CN(Cc2ccccn2)CCC1NC(=O)c1cccnc1O` (stereo not drawn): the “% Inhibition” value is listed as -2% and the Z score was found to be 0.34.

As to `c1csc(-c2csc([C@@H]3CCCO3)n2)n1`, the “% Inhibition” value is listed as 0% and the Z score is given as -0.07.

For `Cc1ccc(NC(=O)N2C[C@@H](C)N(C)[C@@H](C)C2)c(C)n1`, the “% Inhibition” value is -1% and the Z score was determined as 0.13.

Consider `CC(C)CN1CC[C@H](N(C)C)[C@H](CCC(=O)O)C1`, for which the “% Inhibition” value is -8% and the Z score is given as 0.97.

In the case of `Cc1nc(-c2ccc(Br)cc2Cl)nn1CN1CCOC[C@@H]1C`, the “% Inhibition” value is recorded as -10% and the Z score came to 1.43.

Regarding `COc1cc(Cn2nnc(C3CC3)n2)ccn1`, the “% Inhibition” value came to 7% and the Z score was -0.87.

With `O=C(N[C@H]1CNCCC1(F)F)c1scnc1C1CC1`, the “% Inhibition” value is given as 3% and the Z score is -0.45.

For the molecule `CN(C)CC(=O)N1CCN(Cc2ccccc2)[C@@H]2CS(=O)(=O)C[C@@H]21`, the “% Inhibition” value is given as -11% and the Z score is on record as 1.7.

As to `Nc1nc(NC2CC2)cc(-c2ccc(C(=O)N3CCCCCC3)cc2)n1`, the “% Inhibition” value was -16% and the Z score worked out at 1.46.

With `O=C(CCCOc1ccccc1)Nc1ccc2c(O)ccnc2c1`, the “% Inhibition” value is on record as 1% and the Z score was -0.1.

As for `Cc1c(CC(=O)NC[C@H]2CCCCO2)c2c(n1Cc1ccccc1)CCCC2=O`, the “% Inhibition” value is -1% and the Z score is 0.16.

Turning to `COc1ccccc1CCc1nnc(CCC(=O)N2CCN(C)C[C@@H]2C(C)C)o1`, the “% Inhibition” value is reported as -6% and the Z score was determined as 0.86.

For `O=C(NCCCNC(=O)c1ccco1)c1cccc(F)c1`, the “% Inhibition” value is recorded as -24% and the Z score is on record as 2.87.

Regarding `CC(=O)Nc1nc(C(=O)N2CCOC[C@@H]2CC(F)F)cs1`, the “% Inhibition” value worked out at 0% and the Z score is recorded as -0.01.

On to `CC1(C)C[C@H](NCCc2nnc3ccccn23)CN1Cc1ccccc1`, for which the “% Inhibition” value was 0% and the Z score was -0.01.

As for `N#Cc1ccc(S(=O)(=O)Nc2nnc3ccccn23)cc1`, the “% Inhibition” value is given as -10% and the Z score was found to be 1.32.

For the molecule `Cc1ccsc1C(=O)N1CCC[C@H]1c1nnc2ccccn12`, the “% Inhibition” value was -5% and the Z score is 0.51.

`C[C@H](c1ccccc1)c1cc(C(=O)NCCO)on1`: the “% Inhibition” value is recorded as -9% and the Z score worked out at 1.62.
